The other results are listed elsewhere or left out.

The subject of this assay is PfAP2-HC AP2 domain (GST-tagged). The assay can be described thus: gcPBM binding intensity (ln(normalized median fluorescence intensity)); higher = stronger DNA binding. The method, boiled down: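 Binding intensity values are the highest Masliner-normalised natural-log median intensity among replicate spots of either probe orientation. The binding step lasted 1 h in 1× PBS with 1% milk, 0.2 mg/ml BSA, 0.5% salmon testes DNA and 0.03% Triton X-100, using GST-tagged P. falciparum DNA-binding domains expressed in E. coli on an Agilent 4 × 180k array of primer-extended double-stranded 36-bp intergenic genomic probes plus negative controls. Alexa488 anti-GST antibody and a 488 nm scan detected bound protein.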
For the sequence “AATTTTGTTGAGCACACACACATACATACATACATA [CACACA_site3154]”, the “gcPBM binding intensity (ln)” value is 10.4.
In the case of “AAATATATTTTATTTTGTACTTATGTATAAAATATA [XGTACX_site914]”, the “gcPBM binding intensity (ln)” value is 9.52.
With “TGGTATTGAATTTTTTGTACACATAAAATATATATA [XGTACX_site7614]” the figure was 9.54; with “GTGCCATTTAAAAAATGTACAAGAAAATGTTCATCA [XGTACX_site2865]”, 9.43; with “ACCAAAAAAAAAAAAAAAAAAATATACATATATATA [GTGCAC_negctrl_site582]”, 9.3.
Consider “TTTTTTTTGGTATAATGTACATTTTCACTTATGTAT [XGTACX_site3259]”, for which the “gcPBM binding intensity (ln)” value came out at 9.76.
On to “ATTTTATTTTCTCACACACACATATATATATATATA [CACACA_site5781]”, for which the “gcPBM binding intensity (ln)” value worked out at 10.2.
“ACATATGTTAAAAAGGCATGCATTCTTTTTATTTTA [TGCATGCA_site1043]”: the “gcPBM binding intensity (ln)” value was 9.56.
As for “TATATATCGCATAAAACACACAAAAAAAAAATTAAA [CACACA_site7767]”, the figure is 9.91; as for “AAAAAAAAAATATACACACACACATACACATAAATA [CACACA_site3808]”, 10.4; as for ATATATATCTTTTGTGTGCACATATATATAATATAT, 10.5.
As for “TTATATTCTATTTATTGTACTTAAATATATATATAT [XGTACX_site6400]”, the figure is 9.7.
For “TATTTTCCCTCCATATGTACTTAATTATAAGCACAT [XGTACX_site4000]”, the “gcPBM binding intensity (ln)” value is 9.69.
As to “AAACGAAAAAAATGGTGTACATTAAAATGAAAATTG [XGTACX_site7040]”, the “gcPBM binding intensity (ln)” value is 9.74.
With “TCTATCTTTTCCAAACGTACATTTTTTATATAAATT [XGTACX_site5352]”, the “gcPBM binding intensity (ln)” value amounted to 9.77.
Consider “ATTTCATTTATAAGGATATCTACTTTTTATTTTAAT [GTGCAC_negctrl_site59]”, for which the “gcPBM binding intensity (ln)” value stood at 9.64.
As for “TTTTTTTTCCTAATGTGTACTAAAAATGAACAATAA [XGTACX_site5248]”, the “gcPBM binding intensity (ln)” value was 9.41.
“TTTTTTATTTTATTTTATTTTTATTTTTTTTTTTTT [GTGCAC_negctrl_site596]”: the “gcPBM binding intensity (ln)” value worked out at 9.42.
For the sequence “AACATTATTTTGTGTACACATTCGGTTATATTATAT [CACACA_site5628]”, the “gcPBM binding intensity (ln)” value was determined as 10.
In the case of “ATATTTTTTTCATAGACACACACAATATATCTGTTT [CACACA_site8993]”, the “gcPBM binding intensity (ln)” value is 10.1.
For “AAAAAAAAGAAACACACACACATACACATAAATATA [CACACA_site3807]”, the “gcPBM binding intensity (ln)” value stood at 10.5.
For the sequence “ACTTTATTTTCCTGTACACACATTTGACATATTAAA [CACACA_site3378]”, the “gcPBM binding intensity (ln)” value is 9.93.
As for “CACCAAACTAAATGTACACACATACATAAATATAAA [CACACA_site4765]”, the “gcPBM binding intensity (ln)” value turned out to be 9.92.
Regarding “AAAAACAAAAAAAAAACACACAATTCTAGTTATTTT [CACACA_site2767]”, the “gcPBM binding intensity (ln)” value worked out at 9.63.
On to “TTTATGTAAAAATATAGTACATATTAAAAGATAAGA [XGTACX_site8134]”, for which the “gcPBM binding intensity (ln)” value is 9.75.
With “ATATATTCCATAAAGGTGCTGTTAACGTGTCAACGT [GTGCAC_site9402]” the figure was 9.46; with “TAAGTATACACATACACACACACACTAAAAAAAAAA [CACACA_site6337]”, 10.5; with “TAAACATAAATATGCACACATATACAGATATTCATA [CACACA_site5471]”, 9.82.
As for “TTTTACTTAAGACACACACACACAAAAAAAAAAAAA [CACACA_site6573]”, the figure is 10.8.
Consider “ATAAAATACATATAAACACACATATAAACCGACATA [CACACA_site2477]”, for which the “gcPBM binding intensity (ln)” value was determined as 10.1.
Regarding “AGTTTTTACTCTAATGGTACAGTGCAACTAATAAAT [XGTACX_site6950]”, the “gcPBM binding intensity (ln)” value is 9.49.
Take “AAAAAGAGGAAAAAGATAAAGAAATTAAAGGAGAGA [CACACA_negctrl_site423]”: the “gcPBM binding intensity (ln)” value worked out at 9.62.
As for “TTTAATCATTTTATTTGTACTCATAAAAAATATAAT [XGTACX_site5537]”, the figure is 9.45; as for “AAAAAATATAAAAAAAGTACACAAAAACTACAAAAA [XGTACX_site2677]”, 9.85.
For “TAATTTCCTTAAGAATGTACTTACATTTTATTATTT [XGTACX_site5998]”, the “gcPBM binding intensity (ln)” value is 9.58.
Regarding “ATGGACAAGTTAAACGCACACAAATATATACAGACA [CACACA_site1652]”, the “gcPBM binding intensity (ln)” value was determined as 10.2.
As for “TAATATGAAATGTGTACACACGCACCCACAAAAAAA [CACACA_site8949]”, the figure is 10.1; as for “GTTTATGTATTATTATGTACGTATCATAATATATAT [XGTACX_site2385]”, 9.72.
Consider “TCTGTAAACATATTCACACACATAAATTCGCATATA [CACACA_site1866]”, for which the “gcPBM binding intensity (ln)” value was found to be 10.
With “ACAAAATAATTGTTTACACACCCATTTGTAATTTTA [CACACA_site3615]”, the “gcPBM binding intensity (ln)” value was found to be 9.78.
Regarding “TATCATTGTTCATGCTTGCACTTTTGTTACTGTTCC [GTGCAC_site9425]”, the “gcPBM binding intensity (ln)” value was 9.87.
As for “GAAAATTTATATTGCACACATAGGGAATAAAAAAAA [CACACA_site2146]”, the figure is 9.99.
In the case of “AAAATGAAATATGTTATATATATATATATATATATA [CACACA_negctrl_site1752]”, the “gcPBM binding intensity (ln)” value worked out at 9.65.
As for “TGTATGAAAATAAATGCATGCCAAATATATATATAT [TGCATGCA_site132]”, the “gcPBM binding intensity (ln)” value turned out to be 9.75.

For the origin of these results see the supplement of paper PMC11417369.
